The text below walks through data of the RNAGym collection of RNA variant scans (doi:10.1093/nar/gkz1192).

Read counts are not given, so values of variants with three or more changes are uncertain.

Sequences and labels used below:
B1: CPEB3 Ribozyme (parent)
chain: UAACAGGGGGCCACAGCAGAAGCGUUCACGUCGCAGCCCCUGUCAGAUUCUGGUGAAUCUGCGAAUUCUGCUGUAUAUCUC

The variants in this series derive from B1. The series is described as follows: self-cleavage, relative activity (ratio to wild type); higher = more cleavage; in vitro, sequencing. The method, boiled down: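 Relative activity was defined as the cleaved/total read fraction for a variant divided by the same fraction for the unmutated ribozyme. CPEB3 self-cleaving ribozyme libraries were made by rounds of error-prone PCR, barcoded, and transcribed in vitro with T7 RNA polymerase for 5 hours at 37°C, and cleavage ran through transcription plus a 15 min DNase I step before EDTA. Illumina sequencing of template-switched reverse transcripts gave the reads, and DNA sequencing mapped the barcodes. Averages come from three batches, using variants with at least 5 reads.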
Consider G8C U48C U54A U58C U69A, for which the self-cleavage was found to be 0.1.
For the variant G9A A20U U51A, the self-cleavage was determined as 0.25.
The figure for G9A A18U A21G U41C A57G U67C A75G is 0.04; for G9A C17G U41A U67G U80C it is 0.06; for G9A A28C U43A it is 0.06.
In the case of G8U U25G A64G U80C it was 0.04; in that of G9A C23G U66C, 0.07.
In the case of G8A U31G U51C A64G U67C U78C, the self-cleavage is 0.05.
The figure for G8A U26A A77U is 0.07; for G9A U25C U54A U67C it is 0.15; for G9A A21G U49C U72C it is 0.24.
The figure for G9A U26C U72C U76C U80C is 0.06.
Consider G9A U26A A64G, for which the self-cleavage came out at 0.05.
The figure for G9A A20G C32U U41C is 0.21.
G9A U26A U67C U78A: the self-cleavage is 0.05.
As to G9A A35G U66A, the self-cleavage is 0.14.
In the case of G9A A18G A21G C32A it was 0.27.
G8A A28G U43C A57U U80G: the self-cleavage turned out to be 0.04.
In the case of G8A A20U U41C G52U it was 0.06.
For the variant G8A U26A A56G, the self-cleavage is 0.34.
On to G9A C40G U43C A47U U66C U78C, for which the self-cleavage was found to be 0.03.
The figure for G8U A13U A35U U67C U72C is 0.05.
With G9A A56U A57G, the self-cleavage came to 0.24.
Take G8A C37A A65G U72C: the self-cleavage was determined as 0.04.
Turning to G8U A20G U26C A28G G30A, the self-cleavage was 0.05.
In the case of G9A A21G U41C A57G U67C it was 0.1.
The figure for G8A C29G U54A A56G is 0.05.
In the case of G8U U25A A45U U54A U72C it was 0.08; in that of G8U A15U U54C U69C, 0.1.
Take G8U A56G A57G: the self-cleavage is 0.06.
In the case of G8U A45G A64G G70C it was 0.08; in that of G8A U26A A28G U66A U74A, 0.05; in that of G7U U43C U51C U80C, 0.22.
For the variant G9A A18G U54C A77U, the self-cleavage is 0.09.
For the variant G8A C29A A35G U49C, the self-cleavage amounted to 0.06.
Take G8A A15U C62U A64G U74C: the self-cleavage worked out at 0.05.
G8A C11G C39U U54C A77U: the self-cleavage stood at 0.08.
Turning to G8A G10C C23G A56G U67C U69A G70U, the self-cleavage was determined as 0.04.
The figure for G8A G46A U54C is 0.06; for G8A U41C U48G A57G U60C it is 0.06; for G9A U26A U41C it is 0.34.
Regarding G9A A15G U25C U31C C32U U49C U74G, the self-cleavage was determined as 0.04.
The figure for G9A G53A U69C is 0.19; for G9A A56G U74C A75G it is 0.12.
In the case of G9A U31A U48G U54C A64U U76C, the self-cleavage was 0.12.
The figure for G9A A28G A57G is 0.06; for G8A A13G U25A U78C it is 0.05; for G8U A28U A64G C71U it is 0.09.
In the case of G8A A13U C32U U74C U80A it was 0.08; in that of G8U A20U A35U, 0.15; in that of G9A U25C C29U U80A, 0.27.
In the case of G9A U31C C34U U41C A64G, the self-cleavage is 0.13.
The figure for G8U A45G C50U U58C U78C is 0.07; for G9A C23U U49C C68U A77U it is 0.05.
For G9A C40A U43C, the self-cleavage was 0.35.
In the case of G8U G16C A35U C62U U76A it was 0.05; in that of G8U A28G U31A A35U U54A U74A U76C, 0.04; in that of G9A A15G U41C A45G U72G, 0.1.
Consider G8A C11A U41C U54C U66C, for which the self-cleavage was found to be 0.05.
Turning to G8A U26C C37U A64U U67C, the self-cleavage worked out at 0.05.
The figure for G8A A28G G33U A45G U60A is 0.05.
On to G8C A15G A21G A47G U51A U58A U60C, for which the self-cleavage was 0.06.
The figure for G8A C37U A45G U49C is 0.06; for G8A A15G A77U it is 0.06; for G8A U48C U51A it is 0.25.
Regarding G8U G22A U26C U51A, the self-cleavage was 0.12.
The figure for G9A A20G U26G A57G is 0.08; for G8A A35U C38A A45G U58C U72A U80C it is 0.03.
On to G8A C14G A21G U31G C37U U67C, for which the self-cleavage stood at 0.05.
The figure for G8A U49A A56G U58A is 0.07; for G8A A28U U60C it is 0.06.
In the case of G8U A13G C17U C34G A47G U51A U67C, the self-cleavage was determined as 0.03.
The figure for G9A U41A A45G U69C is 0.11.
In the case of G9A U31C U58A U67A U72C it was 0.11; in that of G8C U49C C68U, 0.13; in that of G8A A21G C23U U41C A65U U69A G73A, 0.08.
With G8A U26C A35U U49C U72A U74C, the self-cleavage came to 0.04.
The figure for G9A U26A A45C is 0.17.
In the case of G8U C11A A13G it was 0.06.
The figure for G9A G19A A47G U66A is 0.05.
G8U U25C A56U: the self-cleavage is 0.07.
In the case of G9A A47G C62U U76A it was 0.03; in that of G8A A15G U72C U80C, 0.11.
The figure for G8A A21G A56G A57G U72C is 0.05; for G8A A13U A15C G33A U49A U58C U78C it is 0.03.
In the case of G8A U26C A56G U60C it was 0.06; in that of G9A C11G C37U A57U U78C, 0.04.
On to G8C G10U G16U U26C C29U A65G, for which the self-cleavage is 0.04.
The figure for G9A A47U U69G is 0.18; for G8U C17G A18G U51C A64C C71A U74C it is 0.03; for G9A A15G A65G A75U it is 0.07.
In the case of G8A G24C C37U U49C U54C A56G it was 0.03; in that of G8A A28U A56G U69A, 0.05; in that of G8A C14A U41A, 0.15.
G8U A18G U51C: the self-cleavage worked out at 0.16.
For the variant G9A G24A U51A A57G, the self-cleavage was determined as 0.07.
As to G8A U25C A77U U80A, the self-cleavage was determined as 0.13.
The figure for G8A A18C C32A C34U A56G U72C U80A is 0.04; for G8C A45G U48G U72A it is 0.04; for G9A A15U U25A it is 0.06.
The figure for G8A A15G U25A U41C G46U U66C is 0.01; for G9A C39A U41C U67A U78C it is 0.06.
Consider G8A A18G U31A U51C U67C U72C, for which the self-cleavage came to 0.05.
In the case of G9A A13G U25A A35U A75U it was 0.09.
The figure for G9A U31C A45U is 0.19; for G8A U31C A47G U67G U72G it is 0.03; for G8A U26C C32U U51A it is 0.08.
The figure for G9A A20G A28G A35G U43C A56U U74A is 0.01; for G9A A18U A64G U66C it is 0.05; for G8A U26C C34U C62G it is 0.04.
As to G8A A20U G42U U60C U67A, the self-cleavage is 0.05.
The figure for G8U A15G A28U A45G A56G C59A is 0.04; for G8A A13U U72C it is 0.27.
Take G8A U60C U67C G73U C79A: the self-cleavage was determined as 0.
In the case of G9A G24A U48C C62A A65U U69A U72C it was 0.03.
For G8U A13U U48C U60C U67C A75U, the self-cleavage stood at 0.05.
For G8A A15G U31C A35G U43C, the self-cleavage is 0.06.
In the case of G8C U26C A64G it was 0.07.
Consider G8A U41C U76A, for which the self-cleavage stood at 0.32.
Turning to G8A A35U A64U C68U U69A U72A, the self-cleavage was 0.04.
In the case of G8U A21G G24U A28G A75U U80C it was 0.04.
Regarding G9A A13G G33A C39U U78C, the self-cleavage is 0.05.
The figure for G8U U54C A57G is 0.32; for G9A C14U U25C G63C U72A it is 0.07.
On to G9A G42A U72C, for which the self-cleavage is 0.42.
The figure for G8A A13G A45G U54A is 0.08.
The figure for G9A A35U A45C A56G U60C is 0.05; for G8U G33U U69A it is 0.06.
The figure for G8C A20G A47G U49A U69C is 0.14; for G9A A21G U41A A65G it is 0.04; for G8U A35U U43C U48C U60C it is 0.33.
As to G8A A57G A64G, the self-cleavage amounted to 0.06.
For the variant G9A A20G U26C G36C U54G G73A, the self-cleavage turned out to be 0.04.
In the case of G8C A20G U60A A65G it was 0.12; in that of G8C A21G U41A, 0.4.
As for G8A A45G U54A A65G, the self-cleavage worked out at 0.24.
G8U C37U A65C U76C: the self-cleavage was found to be 0.04.
In the case of G8A A28G U31C it was 0.17; in that of G8A A15G A21G C23U U60C, 0.04.
The figure for G8A C11A U26A C40U A47U U72G is 0.06; for G8U A21G U60C it is 0.16.
As for G8U G22A A35G U49C, the self-cleavage was determined as 0.11.
In the case of G9A A13U C23G G30A U31A A45U it was 0.03.
The figure for G9A A45G G52A U58C is 0.13.
Take G9A A28U U49C: the self-cleavage was 0.27.
In the case of G8A A15G A64U it was 0.38; in that of G8C U49C U54A, 0.36.
The figure for G8A C34G U54C is 0.06; for G9A A18U G61A U80C it is 0.22; for G8C G19A A57G U69G it is 0.18.
The figure for G8A A15U U43C U51A U72C is 0.06; for G8A A20G A35G U58C A64C U67A U80A it is 0.06; for G9A A18U C50U C59U it is 0.03.
As for G9A G10C A18U G30U U51A, the self-cleavage came to 0.16.
In the case of G9A A20G A57U it was 0.33.
In the case of G8A A13G U41A it was 0.25.
Take G8A A21G U43C U67C U80C: the self-cleavage is 0.13.
In the case of G9A C29A U31C U41C A64G U80C it was 0.06; in that of G9A U26C G63A U72A, 0.07; in that of G9A A47U A57U, 0.43.
The figure for G8A A28U U54C U72C is 0.06; for G8A G24A U25C U74A it is 0.11; for G8A A45U U54C U74C it is 0.22.
As for G8A G10A U51C U54C, the self-cleavage came to 0.05.
As for G9A A21G A28G U43C, the self-cleavage was 0.26.
In the case of G9A C38G A56G U67C U72C it was 0.05.
The figure for G8U A20G U41G U48C U51A A64G A75G is 0.03.
